# About 550 (1.1%) of roughly 48,000 compounds were called active. Not shown: some 4% with an inconclusive outcome. No stated cut-off is given here; in the data, active means potency below about 15 µM; inconclusive means mostly about 16 µM to 33 µM; inactive means weaker than that. The list shows a part of the results.
# Biological target: Lysosomal acid glucosylceramidase (Homo sapiens) (UniProt P04062)
# Test: Glucocerebrosidase;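 further: the screen sought inhibitors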
# Details: purified enzyme, resorufin glucoside fluorescence (screen aimed at inhibitors), 20 min
# Procedure, shortened: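 Normal human glucocerebrosidase (0.2 nM final) was assayed with resorufin β-D-glucopyranoside (30 uM final) in 50mM citric acid/KH2PO4, 10mM sodium taurocholate, 0.01% tween-20, pH 5.9. Compounds were titrated; fluorescence (Ex 548, Em 600) read after 20 min at RT.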
# Potency means the concentration at half of the fitted maximal effect.
# UniProt P04062, sequence (P04062 whole entry, looked up): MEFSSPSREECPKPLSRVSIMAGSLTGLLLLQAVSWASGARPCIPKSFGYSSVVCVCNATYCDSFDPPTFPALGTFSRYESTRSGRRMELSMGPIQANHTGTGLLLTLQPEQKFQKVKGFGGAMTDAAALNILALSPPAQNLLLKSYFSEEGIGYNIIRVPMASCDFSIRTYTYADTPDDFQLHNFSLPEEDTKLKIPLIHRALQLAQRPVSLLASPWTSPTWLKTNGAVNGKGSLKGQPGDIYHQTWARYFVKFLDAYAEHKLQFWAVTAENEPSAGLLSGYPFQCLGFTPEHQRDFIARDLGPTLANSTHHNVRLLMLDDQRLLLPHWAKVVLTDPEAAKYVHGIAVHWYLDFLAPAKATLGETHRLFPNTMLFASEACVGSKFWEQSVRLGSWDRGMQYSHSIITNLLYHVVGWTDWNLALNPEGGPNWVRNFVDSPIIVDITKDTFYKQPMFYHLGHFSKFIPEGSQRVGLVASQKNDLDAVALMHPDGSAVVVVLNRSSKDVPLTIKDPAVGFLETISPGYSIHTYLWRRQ
row,Compound,Potency
1,O=C1OC2(CCCCC2)OC(=O)C1=CNc1ccc2c(c1)OCO2,inactive: > 76.9 µM
2,Cc1ccccc1N1CCN(Cc2c(C#N)c3ccccc3n2C)CC1,inactive: > 76.9 µM
3,COc1cccc2[nH]c3c(N4CCC(C)CC4)ncnc3c12,inactive: > 76.9 µM
4,COc1ccc(-c2csc(NC(=O)Cn3nc(C)cc3C)n2)cc1,inactive: > 76.9 µM
5,CCn1c(SCC(=O)Nc2cc(F)ccc2C)nnc1-c1ccccc1O,inactive: > 76.9 µM
6,CCOC(=O)c1nn(-c2ccc3c(c2)CCN3C(C)=O)cc1O,inactive: > 76.9 µM
7,O=C(c1ccc(COc2c(F)c(F)c(F)c(F)c2F)o1)N1CCOCC1,inactive: > 76.9 µM
8,CC(Sc1nc(N(C)C)nc(N2CCOCC2)n1)C(=O)Nc1ccccc1 (stereo not drawn),inactive: > 76.9 µM
9,CCOC(=O)CNC(=O)c1cn(CC(C)C)c(=O)c2cc(OC)c(OC)cc12,inactive: > 76.9 µM
10,O=C(c1cccnc1)N(Cc1ccccc1)c1ccccc1,inactive: > 76.9 µM
11,O=S(=O)(NCc1ccc(F)cc1)c1ccc2c(c1)OCCO2,inactive: > 76.9 µM
12,CCCCn1c(NC(C)=O)c(C#N)c2nc3ccccc3nc21,inactive: > 76.9 µM
13,CCN(CC)CCCN1C(=O)C(O)=C(C(C)=O)C1c1cccc(OC)c1 (stereo not drawn),inactive: > 76.9 µM
14,CN(CC(=O)NCc1cccs1)S(=O)(=O)c1cccc2nsnc12,inactive: > 76.9 µM
15,Cc1ccc(NS(=O)(=O)c2cn(C)cn2)cc1,inactive: > 76.9 µM
16,Cc1cccc2nc(C(F)(F)F)nc(=O)n12,inactive: > 76.9 µM
17,COc1ccccc1NC(=O)CN(Cc1ccco1)C(=O)c1cccs1,inactive: > 76.9 µM
18,Cn1nc(CC(=O)Nc2ccc3c(c2)CCC3)c2ccccc2c1=O,inactive: > 76.9 µM
19,CCCN(CCC(=O)Nc1cc(OC)cc(OC)c1)CC1CC1,inactive: > 76.9 µM
20,N#Cc1nc(Cc2cccc3ccccc23)oc1NCc1ccco1,inactive: > 76.9 µM
21,CCOC(=O)c1ccc(NC(=O)COc2ccc(S(=O)(=O)NC(C)C)cc2)cc1,inactive: > 76.9 µM
22,O=S(=O)(c1cccc(-c2cn3cc(Cl)ccc3n2)c1)N1CCOCC1,inactive: > 76.9 µM
23,COn1cnnc1-c1ccccc1,inactive: > 76.9 µM
24,CN(CC(=O)NCCN1CCCCCC1)S(=O)(=O)c1cccc2nsnc12,inactive: > 76.9 µM

row,Compound,Potency
1,CC1(C)Cc2cccc(OCC(=O)Nc3nccs3)c2O1,inactive: > 76.9 µM
2,O=c1[nH]cnc2nn(-c3ccccc3)nc12,inactive: > 76.9 µM
3,COc1cc(OC)c(C2N(c3ccc(Cl)c(Cl)c3)C(=O)C3CCCN32)cc1OC (stereo not drawn),inactive: > 76.9 µM
4,CCCCn1c2nc3ccccc3nc2c2c(=O)n(CCC)cnc21,active: 5 µM
5,CC(C(=O)Nc1sccc1C(N)=O)N1C(=O)C2CC=CCC2C1=O (stereo not drawn),inactive: > 76.9 µM
6,CCOc1ccc(CCNC(=O)C2CCCN(S(=O)(=O)c3c(C)n[nH]c3C)C2)cc1OCC (stereo not drawn),inactive: > 76.9 µM
7,Cc1ccc(-n2c(=O)c3sccc3n(CC(=O)N3CCCC3)c2=O)cc1,inactive: > 76.9 µM
8,CN1CCN(C(=O)c2cc3c(n(-c4ccccc4)c2=O)CC(C)(C)CC3=O)CC1,inactive: > 76.9 µM
9,COc1cc(NC(=O)c2ccc3c(c2)OCO3)ccc1NC(=O)C(C)C,inactive: > 76.9 µM
10,CC(C)[C@H](NC(=O)NCCc1ccc(F)cc1)C(=O)O,inactive: > 76.9 µM
11,Brc1ccccc1-c1nnc2sc(Cc3ccccc3)nn12,inactive: > 76.9 µM
12,CC(C)CC(=O)Nc1cccc(-c2nc3ccccc3o2)c1,inactive: > 76.9 µM
13,Oc1ccccc1N=Cc1ccc[nH]1,inactive: > 76.9 µM
14,CCN(CC)c1nc2ccccc2n2cnnc12,inactive: > 76.9 µM
15,CCOC(=O)C1CCCN(C(=O)c2cc(Cl)ccc2Cl)C1 (stereo not drawn),inactive: > 76.9 µM
16,CCOC(=O)CCP(=O)(O)C(O)c1ccc(OC)cc1 (stereo not drawn),inactive: > 76.9 µM
17,CN(Cc1ccccc1)C(=O)CCNC(=O)Cn1cnc2ccccc2c1=O,inactive: > 76.9 µM
18,COc1ccc(N2C(=O)CCC(C(=O)N3CCC(C(N)=O)CC3)C2c2ccc(F)cc2)cc1 (stereo not drawn),inactive: > 76.9 µM
19,COCC(=O)Nc1nc(-c2ccccc2)c(C)s1,inactive: > 76.9 µM
20,CCOC(=O)CSc1nnc(CNC(=O)c2ccc(OC)c(OC)c2)n1C,inactive: > 76.9 µM
21,COc1ccccc1C(OC(=O)c1cccs1)C(=O)NCc1ccco1 (stereo not drawn),inactive: > 76.9 µM
22,O=C(NCc1ccc(F)cc1)c1cc(S(=O)(=O)N2CCOCC2)ccc1F,inactive: > 76.9 µM
23,O=c1cc(-c2ccccc2)[nH]c2nc3ccccc3n12,inactive: > 76.9 µM
24,CC(C)CC(NC(=O)C1CCC(C)CC1)C(=O)Nc1ccccn1 (stereo not drawn),inactive: > 76.9 µM

row,Compound,Potency
1,Cc1cc(C(F)(F)F)nc(Nc2nc(C)c3ccccc3n2)n1,inactive: > 76.9 µM
2,COCCn1c(SCC(=O)c2ccc3c(c2)OCCO3)nnc1-c1ccco1,inactive: > 76.9 µM
3,CCOC(=O)N1CCN(c2nc(-c3ccc(OC)cc3)no2)CC1,inactive: > 76.9 µM
4,c1cnc2c(SCc3ccc(-c4nnco4)cc3)cccc2c1,inactive: > 76.9 µM
5,O=S(=O)(c1ccc(S(=O)(=O)N2CCCC3(CCCCC3)C2)cc1)N1CCCCC1,inactive: > 76.9 µM
6,COc1ccc(C(CNC(=O)COc2ccccc2C#N)N2CCOCC2)cc1 (stereo not drawn),inactive: > 76.9 µM
7,COc1ccc(NC(=O)c2ccco2)cc1NC(=O)c1ccc(C)cc1,inactive: > 76.9 µM
8,Cc1ccc(C)c(NC(=O)CS(=O)(=O)c2c[nH]c3ccccc23)c1,inactive
9,COc1ccccc1N1CCN(CCCNC(=O)Nc2ccccc2C)CC1,inactive: > 76.9 µM
10,Cc1ccc2c(c1)C(N1CCCC1=O)CC(c1ccco1)N2 (stereo not drawn),inactive: > 76.9 µM
11,CCOC(=O)c1ccc(N2C(=O)c3n[nH]c(C)c3C2c2ccccc2)cc1 (stereo not drawn),inactive: > 76.9 µM
12,Cc1cc(NC(=O)CCC(=O)N(CCC(C)C)C(C(=O)NC2CCCC2)c2cccnc2)no1 (stereo not drawn),inactive: > 76.9 µM
13,COCCSc1ccccc1C(=O)Nc1cc(C)on1,inactive: > 76.9 µM
14,Cc1ccc2cc3cc(C(=O)N4CC(C)CC(C)C4)oc3nc2c1 (stereo not drawn),inactive: > 76.9 µM
15,CC(=O)Nc1c(C(=O)N2CCOCC2)sc2nc3c(cc12)COC(C)(C)C3,inactive: > 76.9 µM
16,CCOC(=O)Cn1cc(C(=O)c2cccs2)c2ccccc21,inactive: > 76.9 µM
17,CS(=O)(=O)C1=C(O)C(=O)N(CCCC(=O)O)C1c1ccccc1F (stereo not drawn),inactive: > 76.9 µM
18,O=C1CSC(c2ccccc2F)N1CCN1CCCCC1 (stereo not drawn),inactive: > 76.9 µM
19,COc1cccc(C2CC(C(F)(F)F)n3nc(C(=O)NCc4cccnc4)cc3N2)c1 (stereo not drawn),inactive: > 76.9 µM
20,Cc1cc(NS(=O)(=O)c2ccc(NC(=O)Nc3ccc4c(c3)OCO4)cc2)no1,inactive: > 76.9 µM
21,O=S(=O)(c1cccc(-c2nnc(SC(F)F)n2-c2ccccc2)c1)N1CCCCC1,inactive: > 76.9 µM
22,Cc1sc2nc(N)sc2c1C,inactive: > 76.9 µM
23,O=C(COC(=O)c1cncc(Br)c1)NCCC1=CCCCC1,inactive: > 76.9 µM
24,Cn1cnnc1SCC(=O)c1cc2ccccc2oc1=O,inactive: > 76.9 µM

row,Compound,Potency
1,CC(C)(C)NC(=O)c1sccc1C(=O)O,inactive: > 76.9 µM
2,CC(NC(=O)COc1ccccc1)C(=O)OCC(=O)c1cc2ccccc2o1 (stereo not drawn),inactive: > 76.9 µM
3,COC(=O)C1CCN(C(=O)N2CCOCC2)CC1,inactive: > 76.9 µM
4,Cn1c(SCC(=O)Nc2nccs2)nnc1C12CC3CC(CC(C3)C1)C2,inactive: > 76.9 µM
5,CCOc1ccc(N2C(=O)CC(Sc3nc(C)cc(C)c3C#N)C2=O)cc1 (stereo not drawn),inactive: > 76.9 µM
6,CCN(CC)CCn1c2ccccc2c2cnc(N=CN(C)C)c(C#N)c21,inactive: > 76.9 µM
7,O=C(CCN1CCN(c2ccccc2)CC1)Nc1nccs1,inactive: > 76.9 µM
8,Cc1nc2ccc(S(=O)(=O)NCC(=O)O)cc2s1,inactive: > 76.9 µM
9,Cc1sc2ncnc(SCC(=O)N3CCCC3=O)c2c1C,inactive: > 76.9 µM
10,CCOC(=O)c1cnc2c(C(=O)OC)cccc2c1NCc1ccco1,inactive: > 76.9 µM
11,CS(=O)(=O)Nc1ccc(C(=O)NCc2ccco2)cc1,inactive: > 76.9 µM
12,Cc1cccc(OCc2nc(C#N)c(NCc3ccc4c(c3)OCO4)o2)c1,inactive: > 76.9 µM
13,Cc1cc2oc(C(=O)NC3CCS(=O)(=O)C3)c(C)c2cc1C (stereo not drawn),inactive: > 76.9 µM
14,Cc1nc(C)n(CC(O)COc2ccc(C(=O)c3ccccc3)cc2)n1 (stereo not drawn),inactive: > 76.9 µM
15,CCCc1nnc(SCC(=O)O)n1/N=C/c1ccc2c(c1)OCO2,inactive: > 76.9 µM
16,COc1ccc(NC2=NCCC(=O)N2Cc2cccs2)cc1,inactive: > 76.9 µM
17,Cn1c(=O)[nH]c(=O)c2c1nc(NCCCn1ccnc1)n2CCOc1ccccc1,inactive: > 76.9 µM
18,N#Cc1c(N)sc2c1CCN(C(=O)OCc1ccccc1)C2,inactive: > 76.9 µM
19,CCOC(=O)CSc1nnc(Cn2nnc(-c3ccccc3)n2)n1C,inactive: > 76.9 µM
20,Cc1cc2ccccc2nc1SCC(=O)N1CCCC1,inactive: > 76.9 µM
21,Cc1nnc(SCc2cn3ccsc3n2)n(N)c1=O,inactive: > 76.9 µM
